This experiment relates to nude mice, HT29 intrarenal xenograft, tumor weight T/C. Nature of the experiment: NCI In Vivo Anticancer Drug Screen. Data for tumor model HT29;CX-1 Human Adenocarcinoma (MER+) (intrarenal inoculation) in NU/NU Swiss (nude) mice. The conditions noted are these: endpoint: mean tumor weight change, higher = larger tumour. The gist of the method:
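Tumor-bearing mice received test compound or vehicle, and tumor size or survival was recorded. Values are the treated-group measurement divided by the vehicle-treated control measurement.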

The mark [1] stands for this setting: dose: 50.0 mg/kg/injection, schedule: Q01DX010 (sc), vehicle: Klucel (hydroxypropylcellulose) (HPC).
Where [2] appears, read: dose: 100.0 mg/kg/injection, schedule: Q01DX010 (sc), vehicle: Klucel (hydroxypropylcellulose) (HPC).
[3] abbreviates: dose: 10.0 mg/kg/injection, schedule: Q04DX004 (sc), vehicle: saline.
Where [4] appears, read: dose: 50.0 mg/kg/injection, schedule: Q04DX004 (sc), vehicle: Klucel (hydroxypropylcellulose) (HPC).
The mark [5] stands for this setting: dose: 100.0 mg/kg/injection, schedule: Q04DX004 (sc), vehicle: Klucel (hydroxypropylcellulose) (HPC).
The mark [6] stands for this setting: dose: 400.0 mg/kg/injection, schedule: Q04DX004 (sc), vehicle: saline with Tween-80.
[7] abbreviates: dose: 300.0 mg/kg/injection, schedule: Q04DX004 (sc), vehicle: Klucel (hydroxypropylcellulose) (HPC).

Inconclusive results are not listed. Some entries of the source have several records that differ or are many. The list is limited to them. The source may hold further records. Values given together are repeats (runs, samples, wells, individuals or studies). Counts like (3×) stand for listed records that agree.

As to `O=C(O)CCCc1ccc(N(CCCl)CCCl)cc1`, the T/C reads like this: (dose: 4.0 mg/kg/injection, schedule: Q01DX010 (sc), vehicle: saline with Tween-80) 95 % of control, 124 % of control, 440 % of control; (dose: 8.0 mg/kg/injection, schedule: Q01DX010 (sc), vehicle: saline with Tween-80) 20 % of control, 58 % of control, 112 % of control; (dose: 16.0 mg/kg/injection, schedule: Q01DX010 (sc), vehicle: saline with Tween-80) 18 % of control and 73 % of control.

`CCCCCC1c2cc(O)ccc2OC1N1CCOCC1` (configuration not stated): the T/C (dose: 300.0 mg/kg/injection, schedule: Q04DX004 (sc), vehicle: saline with Tween-80) is listed as 39 % of control, 51 % of control, 81 % of control and the T/C (dose: 600.0 mg/kg/injection, schedule: Q04DX004 (sc), vehicle: saline with Tween-80) is reported as 31 % of control, 70 % of control, 150 % of control.

As to `O=NN(CCCl)C(=O)NCCCl`, the T/C (dose: 16.0 mg/kg/injection, schedule: Q01DX010 (sc), vehicle: saline) is 52 % of control and 121 % of control.

In the case of `CCCCCC(O)C1C(=O)OC(C)C(O)/C=C/C=C/C=C/C=C\C=C(\C)C(O)CC(O)CC(O)CC(O)CC(O)CC(O)CC1O` (configuration not stated), the T/C (dose: 300.0 mg/kg/injection, schedule: Q04DX004 (sc), vehicle: distilled water + alcohol) is 40 % of control and 86 % of control.

On to `CN(C=O)C(C(=O)Nc1cccc2c(OC(=O)C(N(C)C=O)(N(C)C=O)N(C)C=O)c(N=Nc3ccc(S(=O)(=O)Nc4nccs4)cc3)cc(N=Nc3ccc(S(=O)(=O)Nc4nccs4)cc3)c12)(N(C)C=O)N(C)C=O` (tested in a mixture with another compound), for which the T/C (dose: 2400.0 mg/kg/injection, schedule: Q04DX004 (sc), vehicle: saline with Tween-80) is 56 % of control and 107 % of control.

Take `O=C(CCCN1CCC(O)(c2cccc(C(F)(F)F)c2)CC1)c1ccc(F)cc1`: the T/C runs as follows: (dose: 25.0 mg/kg/injection, schedule: Q01DX010 (sc), vehicle: Klucel (hydroxypropylcellulose) (HPC)) -8 % of control, 12 % of control, 41 % of control; under setting [1], 25 % of control, 48 % of control, 56 % of control; under setting [2], -3 % of control and 43 % of control.

Turning to `C/C=C(\C)c1cc(=O)c2c(C)cc3c(c2o1)C(=O)c1c(O)c(C2CC(C)(N(C)C)C(OC(C)=O)C(C)O2)cc(C2CC(N(C)C)C(O)C(C)O2)c1C3=O` (configuration not stated), under setting [3], the T/C was 39 % of control and 100 % of control.

Turning to `COC1=C(NC(C)=O)C(=O)c2nc(-c3nc(C(=O)O)c(C)c(-c4ccc(OC)c(OC)c4O)c3N)ccc2C1=O`, the T/C reads like this: under setting [4], 50 % of control, 73 % of control, 90 % of control; under setting [5], 16 % of control, 75 % of control, 91 % of control; (dose: 200.0 mg/kg/injection, schedule: Q04DX004 (sc), vehicle: Klucel (hydroxypropylcellulose) (HPC)) 16 % of control, 41 % of control, 96 % of control.

For the molecule `COc1cc2cc(c1Cl)N(C)C(=O)CC(OC(=O)CC(C)C)C1(C)OC1C(C)C1CC(O)(NC(=O)O1)C(OC)/C=C/C=C(C)C2` (configuration not stated), the T/C runs as follows: (dose: 62.5 micrograms/kg/injection, schedule: Q04DX004 (sc), vehicle: saline + alcohol) 58 % of control, 90 % of control, 103 % of control; (dose: 250.0 micrograms/kg/injection, schedule: Q04DX004 (sc), vehicle: saline + alcohol) 14 % of control and 117 % of control (2×).

For `CN(C(=S)S(=O)(=O)C12CC3CC(CC(C3)C1)C2)c1ccccc1`, the T/C is 16 % of control and 46 % of control under setting [4]; 109 % of control and 176 % of control under setting [5].

In the case of `BrCC[Se]c1ccccc1`, the T/C was 19 % of control and 91 % of control (dose: 50.0 mg/kg/injection, schedule: Q04DX004 (sc), vehicle: saline with Tween-80); 34 % of control and 159 % of control (dose: 100.0 mg/kg/injection, schedule: Q04DX004 (sc), vehicle: saline with Tween-80); 38 % of control, 73 % of control, 111 % of control under setting [6].

`Nc1nc(-c2cccc3ccccc23)cc2ccccc12`: the T/C (dose: 800.0 mg/kg/injection, schedule: Q04DX004 (sc), vehicle: saline with Tween-80) was 32 % of control and 68 % of control.

In the case of `CC(=O)O[C@H]1C(=O)[C@@]2(C)[C@H]([C@H](OC(=O)c3ccccc3)[C@]3(O)C[C@H](OC(=O)[C@H](O)[C@@H](NC(=O)c4ccccc4)c4ccccc4)C(C)=C1C3(C)C)[C@]1(OC(C)=O)CO[C@@H]1C[C@@H]2O`, the T/C under setting [1] is 8 % of control, 38 % of control, 42 % of control; the T/C under setting [2] is listed as 12 % of control, 32 % of control, 43 % of control; the T/C (dose: 200.0 mg/kg/injection, schedule: Q01DX010 (sc), vehicle: Klucel (hydroxypropylcellulose) (HPC)) was -6 % of control, 26 % of control, 44 % of control.

With `CN(CO)c1nc(N(C)CO)nc(N(C)CO)n1`, the T/C is, setting by setting: (dose: 50.0 mg/kg/injection, schedule: Q01DX010 (sc), vehicle: saline) 41 % of control and 75 % of control; (dose: 50.0 mg/kg/injection, schedule: Q01DX010 (sc), vehicle: suspension in saline) 9 % of control and 80 % of control; (dose: 100.0 mg/kg/injection, schedule: Q01DX010 (sc), vehicle: suspension in saline) 2 % of control and 28 % of control.

As for `C=C(NC(=O)C(=C)NC(=O)c1csc(C2=NC3c4csc(n4)C4NC(=O)c5csc(n5)C(C(C)(O)C(C)O)NC(=O)C5CSC(=N5)/C(=C/C)NC(=O)C(C(C)O)NC(=O)c5csc(n5)C3(CC2)NC(=O)C(C)NC(=O)C(=C)NC(=O)C(=C)NC(=O)C(C(C)C)NC2C=Cc3c(C(C)O)cc(nc3C2O)C(=O)OC4C)n1)C(N)=O` (configuration not stated), the T/C reads like this: (dose: 500.0 mg/kg/injection, schedule: Q04DX004 (sc), vehicle: suspension in saline) 82 % of control and 168 % of control; (dose: 1000.0 mg/kg/injection, schedule: Q04DX004 (sc), vehicle: suspension in saline) -15 % of control and 81 % of control.

Take `Nc1nc(=S)c2[nH]cnc2[nH]1`: the T/C (dose: 1.56 mg/kg/injection, schedule: Q01DX010 (sc), vehicle: Klucel (hydroxypropylcellulose) (HPC)) is 94 % of control and 185 % of control.

As for `COC1=C(N)C(=O)c2nc(-c3nc(C(=O)O)c(C)c(-c4ccc(OC)c(OC)c4O)c3N)ccc2C1=O`, the T/C (dose: 0.25 mg/kg/injection, schedule: Q01DX010 (sc), vehicle: saline) is -50 % of control and 10 % of control.

In the case of `COc1cccc2c1C(=O)c1c(O)c3c(c(O)c1C2=O)C[C@@](O)(C(=O)COC(=O)c1cccnc1)C[C@@H]3OC1CC(N)C(O)C(C)O1` (some centres not stated), the T/C (dose: 12.0 mg/kg/injection, schedule: Q04DX004 (sc), vehicle: saline) was 50 % of control and 90 % of control.

Turning to `C[C@]12CCC(=O)C=C1CC[C@@H]1[C@@H]2[C@@H](O)C[C@@]2(C)[C@H]1CC[C@]2(O)C(=O)CO`, the T/C is 28 % of control, 49 % of control, 84 % of control (dose: 150.0 mg/kg/injection, schedule: Q04DX004 (sc), vehicle: Klucel (hydroxypropylcellulose) (HPC)); 29 % of control and 68 % of control under setting [7].

Consider `O=C1c2c(O)ccc(O)c2C(=O)c2c(NCCNCCO)ccc(NCCNCCO)c21`, for which the T/C reads like this: (dose: 0.5 mg/kg/injection, schedule: Q01DX010 (sc), vehicle: acid diluted with saline) 55 % of control and 161 % of control; (dose: 1.0 mg/kg/injection, schedule: Q01DX010 (sc), vehicle: acid diluted with saline) 46 % of control and 82 % of control; (dose: 2.0 mg/kg/injection, schedule: Q01DX010 (sc), vehicle: acid diluted with saline) 17 % of control, 71 % of control, 112 % of control.

As for `Nc1nc2ccc(NCc3ccc(C(=O)NC(CCC(=O)O)C(=O)O)cc3)cc2c(=O)[nH]1` (configuration not stated), under setting [6], the T/C was 13 % of control and 62 % of control.

Consider `C[C@]12C=CC(=O)C=C1CC[C@@H]1[C@@H]2C(=O)C[C@@]2(C)[C@H]1CC[C@]2(O)C(=O)CO`, for which the T/C under setting [7] was 14 % of control, 24 % of control, 44 % of control.

Take `C[PH+](C)C.C[PH+](C)C.[Au]`: the T/C reads like this: (dose: 5.0 mg/kg/injection, schedule: Q04DX004 (sc), vehicle: saline) 12 % of control and 88 % of control; under setting [3], 18 % of control and 62 % of control.

As for `COC12C(COC(N)=O)C3=C(C(=O)C(C)=C(N)C3=O)N1CC1C2N1C` (configuration not stated), under “dose: 8.0 mg/kg/injection, schedule: Q01DX010 (sc), vehicle: saline”, the T/C was -63 % of control and -34 % of control.

On to `COc1cc(NS(C)(=O)=O)ccc1Nc1c2ccccc2nc2ccccc12`, for which the T/C (dose: 3.0 mg/kg/injection, schedule: Q01DX010 (sc), vehicle: lactic acid) was 35 % of control and 90 % of control.

Take `CN=C(N)N/N=C(\c1ccccc1)c1ccc(Br)cc1`: the T/C (dose: 12.5 mg/kg/injection, schedule: Q04DX004 (sc), vehicle: saline with Tween-80) was -70 % of control, 78 % of control, 113 % of control and the T/C (dose: 25.0 mg/kg/injection, schedule: Q04DX004 (sc), vehicle: saline with Tween-80) is -8 % of control, 37 % of control, 107 % of control.

The record behind these values is PubChem BioAssay AID206 (DTP/NCI, 2004).
